Assay results as given in publication PMC12136788.
Changes are numbered by the printed parent chain. The list shows a part of the results.

T1: UNK ZnF1-3 (human, UniProt Q9C0B0 31-174)
T1 sequence: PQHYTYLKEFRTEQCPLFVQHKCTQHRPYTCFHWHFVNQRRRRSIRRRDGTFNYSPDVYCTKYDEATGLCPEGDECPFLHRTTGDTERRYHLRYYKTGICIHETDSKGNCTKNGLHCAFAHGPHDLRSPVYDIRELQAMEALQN

B1: chr16:94664741:94664742:+_ENSMUSG00000040785_ENSMUST00000117648|mus_hu|mus_mus_mus_hu_False|68_78 (ssRNA)
RNA: GGGAGUUCUACAGUCCGACGAUCUGGUACUGAUCUUGGUAGCUGAUAUUCAGGAGAAAUGUUGGCCAAAGGUGUGUAUAUGCUGGUGUACUGGGGCAAACCUGGUAACACGUUUAUGUAUGCUGGCGGUGUCUGGGUGAUAUCCAACAGAGGAUUGAGCAUCA
B2: chr4:146681603:146681604:-_ENSG00000151612_ENST00000508784|hu_hu|motif|central (ssRNA)
RNA: GGGAGUUCUACAGUCCGACGAUCAUUCACCCAACAGAAAACCAAAUGCACCAGUAUAUAAGCUUACAAGUGCUGAUUGCGGUUAAGGACACUCUCUUUAGGGUUUAACAAGACAAGAUUCCUUUCAGAGAAAAGUACGGAGAACAACAGAGGAUUGAGCAUCA
B3: 165880641_165880761_2131_CDS_ENSMUSG00000027678_ENSMUST00000088095|mouse|control|control (ssRNA)
RNA: GGGAGUUCUACAGUCCGACGAUCCCCUGAUGUUGAGGAGGACACUCCAGAGGGGCUGGUGACACUAACGGAAGAGUCUUUGCAGUUUGGAUCCAGGGGAGAGUUGGUCAAGGAGGAAUGGCCUCGGUCGUCGGAGGAGCACGUCAACAGAGGAUUGAGCAUCA
B4: chr4:17845017:17845018:+_ENSG00000109805_ENST00000514176|hu_mus|hu_hu_hu_mus_False|18_68 (ssRNA)
RNA: GGGAGUUCUACAGUCCGACGAUCGCUCUCUUAACUUGUAUCUUCAUUAAGGAACUCUGCAAGGUUAGUUUACUUUUUCUGUAGCGCAGCUGUUUUGGCUCGUCUGGGUAAUCUCAUUUCAUUUCUGGAUGGUGGUUCAUGAUCCAACAGAGGAUUGAGCAUCA
B5: chr2:48026839:48026840:+_ENSG00000116062_ENST00000540021|hu_hu|hu_hu_hu_mus_False|78_88 (ssRNA)
RNA: GGGAGUUCUACAGUCCGACGAUCAUAGUGAGCCACUAGCGUCCUAAAUCUCGAACAAUGGCGAUCAUCCGAAAACUGGCCGAUGAAAAACUUGCCCAGUGAAGUGUCCACAAAGCAAACACCAUACACACGAGUGUGACCAGACAACAGAGGAUUGAGCAUCA
B6: chr18:61067831:61067832:-_ENSG00000119541_ENST00000238497|hu_mus|FALSE|FALSE (ssRNA)
RNA: GGGAGUUCUACAGUCCGACGAUCAGACACAAGGUCAGAGGAAGAUAUUGAGAAAAAUGUUGAGUUGUUUGCUUCCGUUGCAACAGCUUUAGCCAAAUAAGAUUUUCCUGUUCCUGGUGGUCCAAAUAAUAGGAUUCCUCUCCACAACAGAGGAUUGAGCAUCA
B7: 135087853_135087973_1139_CDS_ENSMUSG00000051177_ENSMUST00000110116|mouse|control|control (ssRNA)
RNA: GGGAGUUCUACAGUCCGACGAUCAAUCAACACUUGGACCUGCUCCUGCUUCAGAGGUGGGUAAAGGAUUUCAUUGAGCCGGGGAUCUCUCUGCUUAAGGUUGAUAAAAUCCAUCAUCUGAUCAACCGUCAGGUACGGUUUGCUCAACAGAGGAUUGAGCAUCA
B8: chr6:64286377:64286378:+_ENSG00000112245_ENST00000370650|hu_mus|FALSE|FALSE (ssRNA)
RNA: GGGAGUUCUACAGUCCGACGAUCACUUGUCUGCAUAGAGGUCGUGCUGUGCCUGGCAGUAAUCUCCACUGCCCUUCAGAAACUCCAUAAAUGUGUGACCGAGAACACCACAGAACUGAGGAAUAUGUCUACUCAUUGAAGAUUCAACAGAGGAUUGAGCAUCA
B9: chr18:35731649:35731650:+_ENSMUSG00000037236_ENSMUST00000166793|perfect_dup|FALSE|FALSE (ssRNA)
RNA: GGGAGUUCUACAGUCCGACGAUCCCCUACCGAGAGAUGACUGCUGGAAUGACUUGGACAUUGUAGAACUAUCUCUUGUCUAUUUUAUAGAUCAAAAAAAAAAAAAAAAGUUUUAAAAGAUGGCCAAAAAGAAAGCUCAAGCUACAACAGAGGAUUGAGCAUCA
B10: chr18:54424204:54424205:+_ENSG00000091157_ENST00000357574|hu_mus|motif|central (ssRNA)
RNA: GGGAGUUCUACAGUCCGACGAUCCCAGGCGUGGAGACAGGACAUGAAUAAUUUUGCGGUAUCCAUAGUAAGGUUGUAUUCGGGUAGGGUCAGUGGCUUGGACUUGCUGGCCCGGUACUCAGGGUCACUAUCCUCCCUGCUCUGCAACAGAGGAUUGAGCAUCA
B11: chr7:140404665:140404666:+_ENSG00000090266_ENST00000247866|hu_hu|hu_hu_hu_mus_False|78_98 (ssRNA)
RNA: GGGAGUUCUACAGUCCGACGAUCUGCUCCUACUCGUAGGCUGAGUCUACAGUGUCAGUCUUCAUCAUCAGGAGGGAUUCCCAGUUCUUCAUCUGUCCACUGUGAAGGAUCUGGAUAUGAAAAGUGACCCAGCACAGCAUCCGACAACAGAGGAUUGAGCAUCA
B12: 108412298_108427553_2264_CDS_ENSG00000108018_ENST00000263054|human|control|control (ssRNA)
RNA: GGGAGUUCUACAGUCCGACGAUCCACCUUCCUGUACCCAGUACUAUUGAGGUAACUCUGUCCCAAGCUGCAAUCCUUUGACAGAGAGGAUGGAUUGAACCAAAAUGCCGGCAGGCACUGGCCAUUGCUGUGUCGCUCAUAACCCAACAGAGGAUUGAGCAUCA
B13: chr17:2203652:2203653:-_ENSG00000070366_ENST00000263073|hu_mus|FALSE|FALSE (ssRNA)
RNA: GGGAGUUCUACAGUCCGACGAUCCCUUCCAGGCUGGUAGAUCUGCAGGUCUGGUUUCUUGCUUCUUUUGAUGAUCUUUAGACUUCGGUCCUCUAGUCCAACAGUCUUUGGAAAAGUUUCCUGUGCCUGACUAUUUUCUGCAUCCAACAGAGGAUUGAGCAUCA
B14: chr6:38652254:38652255:-_ENSG00000124767_ENST00000373365|hu_hu|hu_hu_hu_mus_False|28_78 (ssRNA)
RNA: GGGAGUUCUACAGUCCGACGAUCCGAGAACUUCAUAGCAGGGAAGUCAAGCUUCUGGAUUAGCGUCAGUCCAAGAACCCUCGUAUAAAAAUCCAGGGACUUCUUAGGAUCCUUCACUCUUAGCAUCGUUUGCUGCAGUAGAAACAACAGAGGAUUGAGCAUCA
B15: chr1:54531653:54531654:-_ENSMUSG00000073678_ENSMUST00000097739|mus_hu|FALSE|FALSE (ssRNA)
RNA: GGGAGUUCUACAGUCCGACGAUCACACAAAAGAUGAACUCAUUUCAAAGAACAAUGUAAACUGAACUUAGGCCUUGUACACUAUCUUUUUACUAAUAACACCUAUGGUCCCCAUUAGAAUAAACUGUCACUAAAUCAAGGCCACAACAGAGGAUUGAGCAUCA
B16: chr2:237995794:237995795:+_ENSG00000198612_ENST00000392008|hu_mus|motif|central (ssRNA)
RNA: GGGAGUUCUACAGUCCGACGAUCUAUCCUCUUCCACAGAUAUCUUGCAUUAUUCAUGUCGUUCUGGAGCAAGUACAAAGCGGGAAGCUGACCGUACACUGGCGGUGUGGCAAUUCCUCCAGGAGCCUCGAGUUCCUGGUUCUCCAACAGAGGAUUGAGCAUCA
B17: chr10:36717261:36717262:+_ENSMUSG00000019777_ENSMUST00000019911|perfect_dup|motif|central (ssRNA)
RNA: GGGAGUUCUACAGUCCGACGAUCCUGUUUUAUCUUUUCCAUAUAUUCUGGAGUGUUCUGGUUUGUCAUGUUUGAAGGACGGAUAUGCAGUUUGAAGUCUGGUCCAAAAUACUCAAAGUAAUCAUUAUAUGGCAACUCAUUGGGCAACAGAGGAUUGAGCAUCA
B18: chr6:38652254:38652255:-_ENSG00000124767_ENST00000373365|hu_hu|hu_hu_hu_mus_False|8_48 (ssRNA)
RNA: B14 RNA with G57C, U59G, U60G, C63G, G96U, C114A, C116U, U129C
B19: chr14:48151594:48151595:+_ENSMUSG00000037536_ENSMUST00000168833|mus_hu|FALSE|FALSE (ssRNA)
RNA: GGGAGUUCUACAGUCCGACGAUCAUACAAGAUGUACAAAUUUAAGACUAGACAAUUAAAAAAAAAAAACACAAAAUUAUAGCCGCAACACUAUCCUAGCUGCAUUGUGGUGAUUAUAUUGUUCCGUUAGCUGUCCAUUAUAUACAACAGAGGAUUGAGCAUCA
B20: chr5:139702750:139702751:+_ENSMUSG00000036817_ENSMUST00000110883|mus_mus|FALSE|FALSE (ssRNA)
RNA: GGGAGUUCUACAGUCCGACGAUCCCUGGAGGUGGUCCCGUGGAUGGCAGAGUGGGCUGUGAGUGCGUCAGUGCGCGCUGAGAGCAUCCUGCAGUCACGGCAAGUGUAUCCAUUGCUGCUCGCCACCUCUGCUGCCAGUUCACCCAACAGAGGAUUGAGCAUCA
B21: chr4:17845017:17845018:+_ENSG00000109805_ENST00000514176|hu_mus|hu_hu_hu_mus_False|1_78 (ssRNA)
RNA: GGGAGUUCUACAGUCCGACGAUCGCUCUCUUAACUUGUAUCUUCAUUAAGGAACUCGCAAGGUUAAAGUUUACUUUUCUGUAGCGCAGCUGUUUUGGCUCGUCUGGGUAAUCUCAUCUUCAUUUCUGAUGGUGGUUUGGAACUCAACAGAGGAUUGAGCAUCA
B22: chr14:70842435:70842436:-_ENSG00000213463_ENST00000256366|hu_hu|FALSE|FALSE (ssRNA)
RNA: GGGAGUUCUACAGUCCGACGAUCCUGCACCUGUAACCUGUGCUGCACUCUCAGAGACACAGCAUAGCCUGCAUUACGAAAGAGGUCUACAGCAUCCUGGUGCAGCAGGUUCUUUAGGUCUUGGCCAUUUACCGAAAGGAUCUUCAACAGAGGAUUGAGCAUCA

Biological target: T1, UNK ZnF1-3
Experiment: nsRBNS (natural sequence RNA bind-n-seq); RBNS binding buffer (assumed for nsRBNS): 25 mM Tris pH 7.5, 150 mM KCl, 3 mM MgCl2, 0.01% Triton X-100, 500 ug/ml BSA, 20 U/ml SUPERase-In, 4 C; UNK is unkempt and MSI1 is Musashi-1; names of the RNAs are library labels; protein concentration not given here; high values mean tight binding

| Binder | binding signal [enrichment R] |
| --- | --- |
| B1 | 0.958 |
| B2 | 1.54 |
| B3 | 1.76 |
| B4 | 0.435 |
| B5 | 1.21 |
| B6 | 1.29 |
| B7 | 1.3 |
| B8 | 1.27 |
| B9 | 3.14 |
| B10 | 1.03 |
| B11 | 0.815 |
| B12 | 1.21 |
| B13 | 0.447 |
| B14 | 0.872 |
| B15 | 1.1 |
| B16 | 0.677 |
| B17 | 0.998 |
| B18 | 0.902 |
| B19 | 3.16 |
| B20 | 0.817 |
| B21 | 0.509 |
| B22 | 0.54 |
